Laboratory results published in the supplement of paper PMC10502849.
Structures can show the parent of a compound that is named as a salt. Some of the results follow. Most values come without repeats; read them as rough.

Legend:
[1] = tested on: H9 teratoma-derived LAM model cells, TSC2-/-; assay: percent SyTOX+ dead cells; higher = more cytotoxic; details: 5 µM, treatment time 72 h, culture: 3D hyaluronic acid hydrogel
[2] = tested on: H9 teratoma-derived LAM model cells, WT; assay: percent SyTOX+ dead cells; higher = more cytotoxic; details: 5 µM, treatment time 72 h, culture: 3D hyaluronic acid hydrogel, genotype: WT
[3] = tested on: H9 teratoma-derived LAM model cells, TSC2-/-; assay: percent of cells invaded past median invasion distance of vehicle control; LAM is lymphangioleiomyomatosis; the cells come from teratomas of the human stem cell line H9; higher = more invasion; extreme values may be limits of the assay; details: 5 µM, treatment time 72 h, culture: 3D hyaluronic acid hydrogel
[4] = tested on: H9 teratoma-derived LAM model cells, WT; assay: as above; details: 5 µM, treatment time 72 h, culture: 3D hyaluronic acid hydrogel, genotype: WT
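Throughout, for percent SyTOX+ dead cells: cells seeded atop a hyaluronic acid gel crosslinked via MMP-cleavable peptides, containing vitronectin peptides and methylcellulose, imaged live by high-content microscopy with automated analysis, one technical replicate per compound.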
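Throughout, for percent of cells invaded past median invasion distance of vehicle control: live cells imaged by high content microscopy and scored with in-house automated image analysis, one technical replicate per compound in each genotype and rapamycin condition.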

Structure (SMILES)	percent SyTOX+ dead cells ([1]; rapamycin 0 nM) [%]	percent SyTOX+ dead cells ([1]; rapamycin 20 nM) [%]	percent SyTOX+ dead cells ([2]; rapamycin 0 nM) [%]	percent SyTOX+ dead cells ([2]; rapamycin 20 nM) [%]	percent ([3]; rapamycin 0 nM) [%]	percent ([3]; rapamycin 20 nM) [%]	percent ([4]; rapamycin 0 nM) [%]	percent ([4]; rapamycin 20 nM) [%]
CNS(=O)(=O)Nc1nccc(Cc2c(C)c3ccc(Oc4ncccn4)cc3oc2=O)c1F	10.9	4.13	22.1	17.8	58.8	84.1	37.6	28.7
CC(=O)c1ccc(N2CCOCC2)cc1O	9.7	6.52	7.62	10.4	56.7	99.5	59.1	92.2
O=C(/C=C/c1cccc(S(=O)(=O)Nc2ccccc2)c1)NO	27.7	28.5	30.6	12	3.39	2.68	0	1.41
O=c1cc(N2CCOCC2)oc2c1ccc1ccccc12	22.7	28.2	15.3	12.5	7.27	6.34	1.53	1.92
Cc1cnc(CNC(=O)c2c(=O)c3ccc(N4CCCN(C)CC4)nc3n3c2sc2ccccc23)cn1	11.8	10.3	16.2	14.6	44.7	47.4	55.9	68.9
O=S(=O)(Nc1ccccn1)c1ccc(N=Cc2c(O)[nH]c3ccc4ncsc4c23)cc1	27.5	26.8	35.3	23.5	2.5	0	0	0
O=C(NOC[C@H](O)CO)c1ccc(F)c(F)c1Nc1ccc(I)cc1F	31.5	31.5	38.3	31.8	37.3	19.6	36.1	21.2
c1ccc(-c2[nH]ncc2-c2ccnc3ccccc23)nc1	10.3	19.1	20.8	11.9	40.2	23	19.6	22
Nc1nccc(-c2ccc3noc(-c4ccc(Cl)cc4)c3c2)n1 [PIM 1 Inhibitor 2]	11.5	20.8	16.7	23.1	27.6	12.1	29.3	21.9
COc1cc(N2CCC(N3CCN(C)CC3)CC2)ccc1Nc1ncnc(Nc2ccccc2S(=O)(=O)C(C)C)n1	9.44	9.22	31.5	23.6	91.1	36.2	71	23.1
Nc1nc(OCC2CCCCC2)c2[nH]cnc2n1	4.05	7.75	16	13.4	20.7	38.7	30.1	41.2
O=C1Cc2c([nH]c3ccc([N+](=O)[O-])cc23)-c2ccccc2N1 [Alsterpaullone]	27.1	27.8	29.5	21.1	8.42	13.4	7.37	3.85
Cc1cc(N2CCOCC2)cc2[nH]c(-c3c(NC[C@@H](O)c4cccc(Cl)c4)cc[nH]c3=O)nc12	27	14.5	38.6	29.5	21.9	37.6	24	46.1
C[C@@H](NC(=O)/C(C#N)=C/c1ccc(O)c(O)c1)c1ccccc1 [Tyrphostin B44, (-) enantiomer]	17.8	18.6	13.6	15.3	15.3	6.91	48.1	25.6
C[C@@H](Oc1cc(-c2cnn(C3CCNCC3)c2)cnc1N)c1c(Cl)ccc(F)c1Cl	10.3	12.5	23.1	16.2	51.3	29	41.5	44.4
COc1cc(OC)c(C=C2C(=O)Nc3ccccc32)c(OC)c1	14.3	28.9	27	44.8	0	1.73	0	2.86
C=CC(=O)Nc1cccc(Oc2nc(Nc3ccc(N4CCN(C)CC4)cc3OC)ncc2Cl)c1	54.6	54.5	44.9	41.3	13.7	52.6	22.6	15.4
Nc1nc(Nc2ccc(S(N)(=O)=O)cc2)nn1C(=S)Nc1c(F)cccc1F [Cdk1/2 Inhibitor III]	38.7	32.4	22.7	39.2	0.67	10.8	0	0.42
CC(=O)Nc1ccc(NC(=S)NC(=O)c2ccc(C(C)(C)C)cc2)cc1 [Tenovin-1]	44	48.9	40.4	41.9	1.37	6.07	3.11	4.11
CCOc1cc(N2CCC(O)CC2)ccc1Nc1ncc2c(n1)N(C)c1ccccc1C(=O)N2C	7.94	0.64	3.55	9.9	88.4	91.4	62.1	66.7
CNC(=O)c1cc(COc2nnc(Nc3ccc(Cl)cc3)c3ccoc23)ccn1 [BAY 57-9352, Telatinib]	11.2	5.26	14.8	14.4	65.1	42.9	49.5	12.8
C[S+]([O-])c1ccc(-c2nc(-c3ccc(F)cc3)c(-c3ccncc3)[nH]2)cc1 (configuration not stated)	9.09	7.69	29.5	8.82	15.2	24.2	4.46	10.6

Structure (SMILES)	percent SyTOX+ dead cells ([1]; rapamycin 0 nM) [%]	percent SyTOX+ dead cells ([1]; rapamycin 20 nM) [%]	percent SyTOX+ dead cells ([2]; rapamycin 0 nM) [%]	percent SyTOX+ dead cells ([2]; rapamycin 20 nM) [%]	percent ([3]; rapamycin 0 nM) [%]	percent ([3]; rapamycin 20 nM) [%]	percent ([4]; rapamycin 0 nM) [%]	percent ([4]; rapamycin 20 nM) [%]
CCN(CC)Cc1ccc2cc(COC(=O)Nc3ccc(C(=O)NO)cc3)ccc2c1 [ITF2357, ITF-2357, Givinostat hydrochloride]	34.9	18.8	31.3	7.99	4.41	3.59	0	2.07
Nc1nc(NCCNc2ncc(-n3ccnc3)c(-c3ccc(Cl)cc3Cl)n2)ccc1[N+](=O)[O-]	18.8	28.5	27.6	25.9	2.69	26.9	0.79	7.48
COc1cc2ncnc(Nc3ccc(Cl)cc3F)c2cc1OC	26.8	16.5	22.9	23.4	12.3	17.7	16	4.46
O=C(Nc1cc(Cl)cc2c1[nH]c1cnccc12)c1cccnc1 [PS1145 dihydrochloride]	10.2	15.3	20.8	15.1	50.5	30	28.6	34.6
O=C(O)c1ccc(O)c2ncccc12 [IOX 1, 5-carboxy-8HQ, IOX-1]	15	13.5	23.6	24.8	70.6	64.1	36.6	32.2
O=[N+]([O-])c1ccc(-c2nc(-c3ccc(F)cc3)c(-c3ccncc3)[nH]2)cc1	12.6	6.74	8.65	13.5	23.7	19.1	21.6	9.93
Cc1ccc(-c2cn3c4c(sc3n2)CCCC4)cc1 [Cyclic Pifithrin-alpha hydrobromide]	9.63	13.4	27	7.89	80.8	28.1	16.7	15.1
COc1cc(Nc2c(C#N)cnc3cc(OCCCN4CCN(C)CC4)c(OC)cc23)c(Cl)cc1Cl [Bosutinib, SKI-606, Bosulif]	35.7	33.9	39.8	27.6	1.43	3.23	0	0
CC1(O)CC(c2nc(-c3ccc4ccc(-c5ccccc5)nc4c3)c3c(N)nccn23)C1 (configuration not stated) [OSI-906, Linsitinib]	6.99	11.1	12.4	21.2	65.9	80.8	67.9	67.7
O=c1ncccn1[C@@H]1O[C@H](CO)[C@@H](O)[C@H]1O	14.8	8.52	13.4	16.7	64.1	34.1	38.3	49.1
CCCCCCCCCCCCCCCc1cccc(O)c1C(=O)O [Anacardic Acid]	2.41	20.4	17.1	14.1	72.6	55.2	25.6	29.4
Cc1cnc(Nc2ccc(OCCN3CCCC3)cc2)nc1Nc1cccc(S(=O)(=O)NC(C)(C)C)c1	28.5	17.8	31.1	24.4	50	75.8	57.3	57.3
COc1ccc(-c2ccc3c(N4CCOC[C@@H]4C)nc(N4CCOC[C@@H]4C)nc3n2)cc1CO	6.48	0.39	14	15.4	44.4	88.8	53.9	74.7
COc1cc2ncnc(-n3nc(-c4ccccn4)nc3N)c2cc1OC	7.69	3.37	14.6	7.72	49.1	86.5	41.8	50.1
O=C(O)c1ccc(Nc2ncc3c(n2)-c2ccc(Cl)cc2C(c2c(F)cccc2F)=NC3)cc1	19.7	7.32	28.6	25.6	51.6	54.3	33.3	27.3
Cc1ccc(-c2csc3ncnc(SCCC(=O)O)c23)cc1	3.7	1.07	10.5	9.03	64.5	50.8	47.7	25
Clc1ccc(C2(c3ccc(-c4cn[nH]c4)cc3)CCNCC2)cc1	14.4	15.6	64.2	61.3	5.48	1.83	3.25	0
Nc1ccc(C(=O)Nc2cccc(-c3nc(N4CCOCC4)c4oc5ncccc5c4n3)c2)cn1	29.1	18.9	44.3	35.7	35.2	77.5	37.7	72.4
CCCCCCCCCCCCCCCCn1cc[n+](Cc2ccccc2)c1C	13.2	22.3	21.4	39.8	41.6	68.2	40.2	37
CNC(=O)Nc1ccc(-c2nc(N3CC4CCC(C3)O4)c3cnn(C4CCC5(CC4)OCCO5)c3n2)cc1	2.6	1.69	12.7	10.1	63.2	60.2	36.4	45.1
CC(C)(C)c1cc(NC(=O)Nc2ccc(-c3cn4c(n3)sc3cc(OCCN5CCOCC5)ccc34)cc2)no1	14.6	11.7	18.8	11.7	36.4	31.6	13	27.1
N#Cc1c(-c2ccccc2)cc(-c2cc(Br)ccc2O)[nH]c1=O	69.2	40.8	44.1	29.3	52.6	41.4	8.4	27.4
